In the supplement of paper PMC10338343:
± gives the standard deviation. Over roughly 6,600 sequences, “pre-steady-state target cleavage rate” has its median near 0.07; the highest 2% begin near 0.72. The list shows a part of the results, in another mix than the full data.

What follows are sequences tested on MIWI (PIWIL1) piRISC loaded with Kctd7 piRNA (30 nt) (assay: pre-steady-state target cleavage rate (min^-1); MIWI and MILI are mouse PIWI proteins and EfPiwi is from a freshwater sponge; tags in brackets are library labels; higher = faster piRNA-guided slicing of the target). Conditions: guide: Kctd7 piRNA 5'p-UGUUAAUCUCUCAGAGAAGGUGACAGUGAU; auxiliary factor: 500 nM mouse GTSF1.
Summary of the method: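 For Cleave-'n-Seq, a transcribed, DNA-blocked target RNA library […] met 1 nM active affinity-purified piRISC with one synthetic guide at 33 °C for 0–8 or 0–960 min in HEPES–potassium acetate buffer, with or without 500 nM GTSF1 partner protein. Uncleaved targets were sequenced and normalised to depth and weakly complementary targets, with three trials pooled and k3 capped at 0.0001 min^-1. A burst-and-steady-state fit supplied the pre-steady-state cleavage rate.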
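Also: 1 nM active piRISC with 0.1 nM target library at 33 °C single turnover.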

| Sequence | pre-steady-state target cleavage rate |
| --- | --- |
| UAGUCUGUCACCUACUCUGAGACAUUAACA | 0.0747 ± 0.0095 |
| UAGUGACAGUGCUUCUCUGAUAGAUUAACA | 0.0192 ± 0.0036 |
| UAGUGACAGUGGUUCUCUGGGAGAUUAACA | < 0.0001 |
| UAGUGUGUCUCCAUCUCUGAGAGAUUAACA | 0.176 ± 0.014 |
| UAGUCUGUCACCUUCUGAGAGAGAUUAAGA | 0.0176 ± 0.0069 |
| UAGACUGUCACCAUCUCUCAGAGAUUAACA | 0.041 ± 0.0063 |
| AUCACUGUCACCUAGUCUGAGAGAUUUUGA | 0.0964 ± 0.023 |
| UAGUGACAGUCCUUCUCUGACAGAAUAACA | < 0.0001 |
| UACACUGUCACCAUCACUGAGAGAUUAACA | 0.372 ± 0.023 |
| UAGUGAGUCACCGUCUCUGAGAGAUUAACA | 0.469 ± 0.049 |
| UAGUCUGUCAGCUUCUCUGUGAGAUUAACA | 0.246 ± 0.013 |
| UAGUGAGUCACCUUCUCUGAGUGUUUAACA | 0.0333 ± 0.0054 |
| UAGACACACACCUUCUCUGAGAGAUUAACA | 0.502 ± 0.033 |
| UAGUGUGUCACCUUCUCUGAGAGUAAAACA | 0.194 ± 0.038 |
| UUCACUGACACCAUCUCUGAGAGAUUAACA | 0.543 ± 0.027 |
| UAGUGAGUCACCUUCUCUGAGAGAUAAAGA | 0.0438 ± 0.017 |
| UAGACUGACACCUUCACUGAGAGAUUAACA | 0.371 ± 0.022 |
| UAGUGUGUCACCUUGUCUGAGAGUUUAACA | 0.0501 ± 0.01 |
| UUCACUGUCACCUUCUCUGAGACGAUUAACA | 0.0506 ± 0.012 |
| UAGACUGUGACCUUCACUGAGAGAUUAACA | 0.328 ± 0.029 |
| UACACUGACACGUUCUCUGAGAGAUUAACA | 0.483 ± 0.032 |
| UUCACUGUCACCUUCUCUUAGAGAUUAACA | 0.33 ± 0.015 |
| UUCACUGUCACCUUCUCUGACAGAUAAACA | 0.0294 ± 0.0076 |

| Sequence | pre-steady-state target cleavage rate |
| --- | --- |
| UUCACUGUCACCUUCUCUGAGUGUUUAACA | 0.0344 ± 0.0057 |
| UAGUGAGUCAGCUUCUCUGAGAGUUUAACA | 0.212 ± 0.036 |
| UAGUCUGUCACCUUCUCUGAGAUGAUUAACA | 0.0171 ± 0.0058 |
| UAGUGACACACCUUCUCUGAGAGAUUGACA | 0.287 ± 0.041 |
| UUCAACUGUCACCUUCUCUGAGAGAUUAACA | 0.733 ± 0.039 |
| UAGUGACUCACCUCUCUGAGAGAUUAACA | 0.0246 ± 0.0051 |
| UUCACUGUCACCUACUCUGAGAGAUUAUCA | 0.326 ± 0.045 |
| UACACUGUCACCAUCUGUGAGAGAUUAACA | 0.378 ± 0.032 |
| UAGACUGUCACCUUCUCUGAGAGAUUAGCA | 0.271 ± 0.03 |
| UUCUGUGUCACCUUCUCUGAGAGAUAUUGA | 0.0674 ± 0.017 |
| UAGUGAGUCACCUUCUCUGAGAGCUUAACA | 0.247 ± 0.032 |
| AUCACUGUCACGUUCUCUGAGAGAUAAACA | 0.311 ± 0.036 |
| UAGUGACACACCUUCUCUGAGAAAUUAACA | 0.235 ± 0.038 |
| UAGUGACAGAGGUUCUCUGAGAGAUUAUGA | < 0.0001 |
| UUCAUCUGUCACCUUCUCUGAGAGAUUAACA | 0.706 ± 0.03 |
| UUCACUGUCAGCUUGUCUGAGAGAUUAACA | 0.658 ± 0.03 |
| UAGUGACACACCUUCUCAGAGUGAUUAACA | 0.00558 ± 0.0037 |
| UAGUGUGUCCCCUUCUCUGAGAGAUUAACA | 0.642 ± 0.042 |
| UAGUGUGUGACGUUCUCUGAGAGAUUAACA | 0.398 ± 0.025 |
| UAGUGAGUCACCUUCUGUGAGAGAAUAACA | 0.109 ± 0.015 |
| UAGACUGCUCACCUUCUCUGAGAGAUUAACA | 0.717 ± 0.047 |
| UACACUGUGUCCUUCUCUGAGAGAUAUUGA | 0.00581 ± 0.0037 |
| UAGUGUGUCACCUUCCUGAGAGAUUAACA | 0.0693 ± 0.019 |

| Sequence | pre-steady-state target cleavage rate |
| --- | --- |
| UACACUGUCACGAUCUCUGAGAGAUUAACA | 0.496 ± 0.04 |
| UAGUGACAGUGGAACUCUGAGUCUAAUUGA [g10:g16:cont:t1A] | 0.0444 ± 0.023 |
| UAGACUCGUCACCUUCUCUGAGAGAUUAACA | 0.687 ± 0.041 |
| UAGACUGUCACCUUCUCAGAGAGAUUAAGA | 0.101 ± 0.014 |
| UUCACUGUGACCUUCUCUGAGAGAUUUACA | 0.214 ± 0.026 |
| UAGUGUGUGACCUUCUCUGAGUGAUUAACA | 0.0123 ± 0.004 |
| UACACUGUCACCUUCUCAGAGAGAUAUUGA | 0.0336 ± 0.016 |
| UAGUGACUCACCUUCUGUGAGUGAUUAACA | 0.0083 ± 0.0037 |
| UACUCUGUCACCUUCUCUGAGACAUUAACA | 0.309 ± 0.025 |
| UACACUGUCACCUUCCUCUGAGAGAUUAACA | 0.375 ± 0.024 |
| AUCUCUGUCACCUUCUCUGAGACAUUAACA | 0.292 ± 0.022 |
| AUCACUGUCACCUUCUCUGGAGAUUAACA | 0.294 ± 0.022 |
| AUCAGUGUCACCUUCUCUGACAGAUUAACA | 0.468 ± 0.028 |
| UAGACUGUCAGCUUCUCUGAGAGAUAAACA | 0.168 ± 0.022 |
| UAGUGACAGACCUUCUCAGAGACAUUAACA | 0.00533 ± 0.0032 |
| UAGUGACACAGGUUCUCUGAGAGAUUAAGA | 0.00292 ± 0.0026 |
| UUCACUGUCACCUUCUCUGAGAGAUUCAACA | 0.561 ± 0.08 |
| AUCAGUGUCACCUUCUCUGAGAGAUUAACA | 0.633 ± 0.028 |
| UAGUGUGACACCUUCACUGAGAGAUUAACA | 0.36 ± 0.018 |
| UUCACUGUCACCUUCUCUGAGAGUUAAACA | 0.183 ± 0.03 |
| UAGUGACAGUCCUUGUCUGAGACAUUAACA | 0.00922 ± 0.0033 |
| UAGUGACAGUGGUUCUGUGAGUGAUUAACA | < 0.0001 |
| UAGUGUGUCACCUUCUCUGAGCAGAUUAACA | 0.00638 ± 0.0046 |

| Sequence | pre-steady-state target cleavage rate |
| --- | --- |
| UAGUGGGUCACCUUCUCUGAGAGAUUAACA | 0.564 ± 0.027 |
| UAGUCUGUGACCUUCUCUGACAGAUUAACA | 0.112 ± 0.013 |
| UACACUGUCACCUGUCUCUGAGAGAUUAACA | 0.583 ± 0.032 |
| UAGUGAGUCACCAUCUCUGAGAGAUUUUGA | 0.0112 ± 0.0056 |
| UAGUGACUCACCUUCUCUGAGAGUAUAUGA | 0.00493 ± 0.0034 |
| AUCACUGUCACCUUCUCUGAGUGAUAAACA | 0.0215 ± 0.0056 |
| UUCACUGUCACCUUCUCUGAGAGAUUUAACA | 0.498 ± 0.055 |
| UUCACUGUCACCUUCUCUGAGAGAUUAGCA | 0.259 ± 0.035 |
| UAGUGUGUCACCUUCUCUGAGAGAUUGACA | 0.203 ± 0.037 |
| UAGUGACUCACCUUCUCUGAGAGAUUCACA | 0.633 ± 0.12 |
| UACUCUGUCACCAUCUCUGAGAGAUUAACA | 0.69 ± 0.036 |
| UAGUGACUCACCUUCUCUGCGAGAUUAACA | 0.302 ± 0.034 |
| UACACUGUCACCUUCUCUGACAGAUUAUCA | 0.0418 ± 0.0092 |
| UAGUCAGUCACCUUCUCUCAGAGAUUAACA | 0.125 ± 0.012 |
| UACUGAGUCACCUUCUCUGAGAGAUAUUGA | 0.0546 ± 0.011 |
| AUCACUGUCACCUUCACUGUGAGAUUAACA | 0.156 ± 0.011 |
| UAGUCUGUCACCUUCUCUGAGAGAAUAACA | 0.365 ± 0.064 |
| UAGUCUGUCACCUACUCUGAGAGAUUAUGA | 0.0264 ± 0.0064 |
| UAGACUGUCUCCUUCUCUCAGAGAUUAACA | 0.0738 ± 0.0058 |
| UUCACACUCACCUUCUCUGAGAGAUAUUGA | 0.0619 ± 0.018 |
| UAGUGUGUGACCUUGUCUGAGAGAUUAACA | 0.14 ± 0.021 |
| AUCACUGUCACCUUCUCUGAGAGAUCUAACA | 0.358 ± 0.058 |
| UAUACUGUCACCUUCUCUGAGAGAUUAACA | 0.767 ± 0.047 |
